Test results published in PubChem BioAssay AID463173 (ICCB-Longwood Screening Facility, Harvard Medical School, 2010).
Screen size: about 52,000 compounds; about 4,300 (8.3%) were called active. No stated cut-off is given here; in the data, active means survival mostly below about 52% (no sharp cut-off); inactive means mostly above about 56%. This is one part of the list.

test system: DeltatarO mutant; test: growth inhibition of S. aureus wild type versus tarO mutant, primary screen, teichoic acid synthesis inhibitors, RN4220, OD600 (AID 463173); settings: OD600, 18 h, hits give low values, screened at 18.75 µg/mL (by protocol)

SMILES | survival
Cc1ccc(C)c(-n2c3nc(=O)[nH]c(=O)c-3cc3c(C)nn(-c4ccccc4)c32)c1 | inactive: 92%
COc1cccc(CNS(=O)(=O)c2cc3[nH]c(=O)c(=O)[nH]c3cc2C)c1 | inactive: 67%
CCc1ccc(NC(=O)c2ccc(F)c(S(=O)(=O)N3CCC4(CC3)OCCO4)c2)cc1 | inactive: 84%
CCc1ccc(N2CCn3c2nc2c3c(=O)n(C/C=C/c3ccccc3)c(=O)n2C)cc1 | inactive: 71%
Cc1ccc(CNC(=O)CC(C)CC2=NS(=O)(=O)c3ccccc3N2)cc1 (stereo unspecified) | inactive: 84%
COc1ccc(NC(=O)c2c(NCc3ccc(N(C)C)cc3)sc3c2CCC3)cc1 | inactive: 76%
O=C(CC1CCCCC1)NCc1ccco1 | inactive: 69%
Cc1ccsc1CN(C(=O)c1oc2ccc(F)cc2c1C)C1CCS(=O)(=O)C1 (stereo unspecified) | inactive: 69%
CCOc1ccccc1NC(=O)N(Cc1ccc(F)cc1)C1CCN(CC)CC1 | inactive: 60%
Cc1cccc(CCNc2ncnc3onc(-c4ccc(Cl)cc4)c23)c1 | active: 33%
Cc1[nH]c2ccc(-c3nnc(SCC(=O)N4CCCC4)o3)cc2c1C | inactive: 83%
COC(=O)c1ccc(NC(=O)CN(CCc2ccccc2)S(=O)(=O)c2ccc(OC)cc2)cc1 | inactive: 69%
Cc1cccc(Cn2nc(C)n3c(cc4cc(C)ccc43)c2=O)c1 | inactive: 84%
COc1ccc2o/c(=N\O)c(C(N)=O)cc2c1 | inactive: 117%
CCc1ccc2oc(C(=O)Nc3c(C)n(C)n(-c4ccccc4)c3=O)cc(=O)c2c1 | inactive: 97%
Cc1ccccc1Cn1c2ccccc2c2cnn(CC(=O)NC(C)CCc3ccccc3)c(=O)c21 (stereo unspecified) | inactive: 76%
CCOC(=O)c1ccc(N2C(=O)c3n[nH]c(C)c3C2c2ccccc2OC)cc1 (stereo unspecified) | inactive: 98%
N#Cc1ccc(C(=O)NCc2ccc3c(c2)CCN3C(=O)c2ccc(F)cc2)cc1 | inactive: 83%
Cc1oc(-c2cccc(Cl)c2)nc1CS(=O)(=O)CC(=O)NCc1ccccc1Cl | inactive: 49%

SMILES | survival
CCCOc1ccc(C(=O)Nc2cc3c(cc2N2CCOCC2)n(C)c(=O)n3C)cc1 | inactive: 140%
Cc1cccc(N2C(=O)C(CC(=O)Nc3ccc(Cl)cc3)N(Cc3ccco3)C2=O)c1 (stereo unspecified) | inactive: 101%
Cc1cccc(-n2c(=O)c3c(c4cc(C)ccc4n3C)n(CC(=O)NCC3CCCO3)c2=O)c1 (stereo unspecified) | inactive: 68%
Cc1oc2ccc(O)c(CN3CCN(C)CC3)c2c1C(=O)Nc1cccc(Cl)c1C | inactive: 81%
Cc1ccc2c(c1)c(=O)c1ccccc1n2CCCC(=O)Nc1cc(Cl)ccc1C | inactive: 113%
COc1ccc2c(CNCc3cccs3)c(C(=O)O)n(Cc3ccc(C)cc3)c2c1 | inactive: 77%
Cc1nn(CC(=O)O)c(=O)c2cc3cc(F)ccc3n12 | inactive: 119%
COc1ccccc1NC(=O)c1cc(S(=O)(=O)N2CCN(c3ccccc3Cl)CC2)ccc1F | inactive: 102%
O=C(Nc1cc(Cl)cc(Cl)c1)c1ccc2c(c1)N(Cc1cccc(Cl)c1)C(=O)c1ccccc1S2=O (stereo unspecified) | inactive: 76%
COC(=O)c1ccc(C2c3c(oc4ccccc4c3=O)C(=O)N2c2nc(C)c(C(=O)OC)s2)cc1 (stereo unspecified) | inactive: 71%
Cc1ccc(C)c(N2CCN(c3ccc4cc(S(=O)(=O)N5CCC(C)CC5)ccc4n3)CC2)c1 | inactive: 85%
Cc1ccc(C)c(N2CCN(C(=O)c3cc(C)nc4c3c(C)nn4-c3cccc(F)c3)CC2)c1 | active: 8%
CCn1c(C(=O)NCc2ccc(OC(C)C)cc2)cc2oc3ccccc3c21 | active: 33%
CC1CCC(C(C)C)C(OC(=O)Cn2nnc3c(cnn3-c3ccccc3)c2=O)C1 (stereo unspecified) | inactive: 70%
CN1C=CC=C/C1=C1\SC(=S)N(C2CCCCC2)C1=O | inactive: 78%
CCOc1ccc(-n2c(SCC(=O)N3CCC(C)CC3)nc3c([nH]c4ccccc43)c2=O)cc1 | inactive: 72%
CCOc1ccccc1CNC(=O)c1ccc(N2Cc3ccccc3Oc3ncccc32)s1 | inactive: 83%
Cc1cc(C)c(C#N)c(SCc2cccnc2)n1 | inactive: 53%
Cc1ccc(N2C(=O)NC(NS(=O)(=O)c3ccccc3)(C(F)(F)F)C2=O)cc1C (stereo unspecified) | inactive: 65%

SMILES | survival
Cc1cccc(NC(=O)N2CCN(C(=O)c3nsc4ccccc34)CC2)c1C | inactive: 88%
COc1cccc(NC(=O)CN2C(=O)CSc3ccc(S(=O)(=O)N4CCCC4)cc32)c1 | inactive: 111%
Cc1ccc2c(CC(=O)Nc3ccc(S(=O)(=O)N4CCCCC4C)cc3)coc2c1 (stereo unspecified) | inactive: 75%
Cc1ccc(CNC(=O)c2cccn2-c2nnc(N3CCCC3)s2)cc1 | inactive: 70%
Cc1cc(N2CCCCC2)nc2ccc(NC(=O)/C=C/c3ccc(OC(C)C)cc3)cc12 | inactive: 50%
Cc1ccc(NC(=O)c2cnc(N3CCCCC3)c3ccccc23)c(C)c1 | inactive: 92%
COCCCNC(=O)C1CCN(C(=O)c2cnn(-c3ccccc3)c2-n2cccc2)CC1 | inactive: 90%
CCCN1CCN(C(=O)Cn2c(-c3cccs3)cc3ccccc32)CC1 | inactive: 95%
COC(=O)c1c(Oc2ccc(OC)cc2)nnc(-c2ccccc2)c1-c1ccccc1 | inactive: 101%
CCCCOc1ccc(C2=NC(c3cccs3)=Nc3ccc(CC)cc3N2)cc1 | inactive: 87%
CC(C)CC(=O)Nc1nc2nc(-c3ccccc3)cc(=O)n2[nH]1 | inactive: 72%
CCOc1ccc(C(=O)Nc2nnc(S(=O)(=O)Nc3ccccc3)s2)cc1 | active: 34%
CCOc1cc2[nH]c(=O)n(CCCCC(=O)N3CCN(c4ccc(OC)cc4)CC3)c(=O)c2cc1OCC | inactive: 72%
Cc1ccc(CNC(=O)CCc2c(C)c3ccc(O)c(C)c3oc2=O)cc1 | inactive: 76%
CSc1cccc(Nc2cc(C(=O)NCCc3ccc(Cl)cc3)c3ccccc3n2)c1 | inactive: 103%
CC1CN(C(=O)N2CCC(C(=O)N3CCN(c4ccccc4)CC3)CC2)c2cc(Cl)ccc2O1 (stereo unspecified) | inactive: 52%
Cc1ccc2[nH]c(C)cc(=S)c2c1 | active: 45%
Clc1ccc2c(c1)-c1c(cnc3cc(-c4ccccc4)nn13)CO2 | inactive: 62%
